# Laboratory results: PubChem BioAssay (NCATS)
# Values joined by “and” are separate entries in the source; they are usually repeats but may differ in a detail not shown here. Equal entries are not always repeated. The list shows a part of the results. Further columns of the screen follow, without active or inactive calls. Most of these compounds were active or inconclusive in the main read-out, so they are no random draw. The note in brackets gives the kind of curve behind each potency; many fits are weak.
# Assay: qHTS Assay for Lipid Storage Modulators (AID 1519)
# Details: Drosophila S3 cells, BODIPY lipid droplet/cell ratio, laser cytometry; measured here: cell count channel max response; cells loaded with oleic acid
# Summary of the method: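 Cells seeded at 5,000 per well were treated with compounds over a concentration series and loaded with oleic acid (400 uM, as added). Lipid droplet fluorescence (488 nm excitation, 500-530 nm channel) was read by laser-scanning cytometry and normalized to 20 uM Triacsin C.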
# Tags tell the direction and shape of the fitted curve.
row,SMILES,max response [%]
1,CCn1ccnc1C[C@@H]1COc2ccccc2O1,39.6
2,Cc1cc(NC(=O)C2=C(O)c3ccccc3S(=O)(=O)N2C)no1,31.1
3,COc1cccc(Cn2c(=O)c(CCc3ccccc3)nc3cnc(N4CCOCC4)nc32)c1,46.4
4,O=C(Cc1ccc(Cl)cc1)c1c(O)cc(O)cc1O,60.7
5,CC(C)=CCC/C(C)=C\COc1c2ccoc2cc2oc(=O)ccc12,86.5
6,COc1ccccc1CNc1ccnc(-c2cccc(NS(C)(=O)=O)c2)n1,11.7
7,COc1ccc(C2CNC(=O)C2)cc1OC1CCCC1 (centres undefined),70.4
8,O=c1cc(-c2ccccc2O)oc2ccc3ccccc3c12,79.6
9,COc1ccc(-n2c(=O)c(C)nc3cnc(N4CCOCC4)nc32)cc1,33.5
10,COc1ccc(-n2c(=O)c(C)nc3cnc(Nc4cccc(OC)c4)nc32)cc1,11.2
11,O=C(O)COc1cccc(-c2ocnc2-c2nc(-c3ccccc3)c(-c3ccccc3)o2)c1,97.6
12,C#CCCCCCCCCCCCCCCCC(=O)O,62.1
13,COc1cccc(Cn2c(=O)c(-c3cccc(C#N)c3)nc3cnc(Nc4ccccc4)nc32)c1,63.8
14,CC(C)=CCc1c2c(c3occ(-c4ccc(O)cc4)c(=O)c3c1O)C=CC(C)(C)O2,-57.2
15,COc1ccc(Oc2ncc3ncc(=O)n(CCC#N)c3n2)cc1,24.3
16,Fc1ccc(Nc2ccnc(-c3ccccc3C(F)(F)F)n2)cc1,21.5
17,COc1ccccc1CNc1cc(-c2ccccc2OC)ncn1,2.79
18,Cc1nc2cncnc2n(Cc2ccccc2Cl)c1=O,24.4
19,CN1CCN(c2nc(-c3cccnc3)nc3ccccc23)CC1,12.3
20,O=S(=O)(c1ccccc1)N1CCC[C@@]2(CCN(Cc3ccccc3)C2)C1,14.8

# Same assay, conditions: Drosophila S3 cells, BODIPY lipid droplet/cell ratio, laser cytometry; measured here: cell number channel AC50; cells loaded with oleic acid
row,SMILES,AC50
1,CCNc1ncc2nc(-c3cn(C)c4ccccc34)c(=O)n(Cc3ccc(F)cc3)c2n1,"0.355 µM [rising, full curve, poor fit]"
2,N#Cc1cccc(-c2cncnc2NCCc2cnc[nH]2)c1,"15.8 µM [rising, partial curve]"
3,COc1cccc(-c2nc(N(C)C)c3ccccc3n2)c1,"1.78 µM [rising, full curve]"
4,COc1ccc2[nH]cc(CCNc3cc(-c4ccccc4Cl)ncn3)c2c1,"1.78 µM [rising, partial curve, poor fit]"
5,COc1ccc(-c2nc(C(=O)N3CCN(C)CC3)sc2-c2ccc(OC)cc2)cc1,"25.1 µM [rising, partial curve]"
6,CN(Cc1ccco1)c1ncncc1-c1ccc2c(c1)OCO2,"0.891 µM [rising, partial curve]"
7,O=c1c(-c2cc(F)cc(F)c2)nc2cnc(N3CCNCC3)nc2n1Cc1ccc(F)cc1,"39.8 µM [falling, single point]"
8,CN1C(=O)CCC1c1cccnc1 (centres undefined),"35.5 µM [rising, partial curve, poor fit] and 7.08 µM [falling, partial curve, poor fit]"
9,CN(C)c1ccc(-c2nc(-n3ccnc3)c3ccccc3n2)cc1,"0.0251 µM [rising, full curve]"
10,CCOc1ccc(/C=C/C(=O)c2cccs2)cc1,"14.1 µM [rising, partial curve, poor fit]"
11,CC(=O)c1ccc[nH]1,"7.08 µM [rising, single point]"
12,COCCn1c(=O)c(-c2cc(F)cc(F)c2)nc2cncnc21,"10 µM [rising, partial curve]"
13,C[N+](C)(C)CCOC(=O)CCC(=O)OCC[N+](C)(C)C,"8.91 µM [falling, full curve]"
14,COc1ccc(CNc2ncncc2-c2ccccc2C)c(OC)c1,"6.31 µM [rising, partial curve, poor fit]"
15,Cn1cnc2c(NCc3ccccc3)nc(NCCO)nc21,"2.24 µM [rising, full curve]"
16,O=S(=O)(c1ccccc1)N1CCC2(CCN(c3ncccn3)CC2)CC1,"6.31 µM [rising, partial curve, poor fit]"
17,COc1ccc(Oc2ncc3ncc(=O)n(CCc4ccccc4)c3n2)cc1,"0.447 µM [rising, full curve, poor fit]"
18,c1ccc2c(N3CCOCC3)nc(-c3ccoc3)nc2c1,"3.16 µM [rising, full curve, poor fit]"
19,COc1ccc(-n2c(=O)c(-c3ccc(F)cc3)nc3cnc(OC)nc32)cc1,"3.98 µM [rising, partial curve, poor fit]"
